Test results from PubChem BioAssay AID1346428 (National Center for Advancing Translational Sciences (NCATS), 2018).
Screen size: about 48,000 compounds; about 1,200 (2.5%) were called active. Inconclusive results (about 2%) are left out.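 How the source made its calls: active means activation of at least 60% and not above a set upper limit (about 1 call in 100 departs from these limits); inconclusive means activation of 40% to 60%, or above that upper limit; inactive means activation under 40%.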 Some of the results follow.

What follows are compounds tested against Probable G-protein coupled receptor 32 (Homo sapiens) (UniProt O75388) (assay: qHTS for Agonists of Human Resolvin D1 Receptor DRV1). Conditions: CHO-K1 GPR32 beta-arrestin PathHunter luminescence, 90 min; at 76.9 µM; stronger effect = higher value; zero percent set by DMSO-only wells.
Procedure, shortened: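 Beta-arrestin recruitment read-out: luminescence from complemented beta-Gal in CHO-K1 GPR32 PathHunter cells, measured 1 h after detection reagent at ambient temperature following 90 min compound exposure at 37 °C; DMSO served as basal (EC0) control.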

Sequence of UniProt O75388 (O75388 whole entry, looked up): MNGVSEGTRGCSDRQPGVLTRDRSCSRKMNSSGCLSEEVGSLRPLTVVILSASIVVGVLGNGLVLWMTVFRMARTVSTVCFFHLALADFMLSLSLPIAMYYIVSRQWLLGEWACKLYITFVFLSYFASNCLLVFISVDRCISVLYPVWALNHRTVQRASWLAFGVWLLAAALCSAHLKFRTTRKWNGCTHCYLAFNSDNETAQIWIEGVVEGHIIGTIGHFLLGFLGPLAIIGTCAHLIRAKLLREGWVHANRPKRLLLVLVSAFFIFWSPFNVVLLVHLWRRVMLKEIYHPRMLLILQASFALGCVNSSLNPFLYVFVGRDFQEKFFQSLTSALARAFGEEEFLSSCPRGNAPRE

activation, inactive:
O=C(CSc1nnc(CNC(=O)c2c(F)cccc2Cl)o1)Nc1ccccc1F -10.4%
COc1ccccc1-c1c(C)nn2c(N3CCN(c4cccc(Cl)c4)CC3)cc(C)nc12 -4.15%
Cc1c(NS(=O)(=O)c2cccc(C(=O)O)c2)c(=O)n(-c2ccccc2)n1C 25%
COc1ccc(OC)c(NC(=O)c2cc3c(s2)-c2ccccc2SC3)c1 -15.8%
CC1=C(C(=O)OCc2ccc(C)cc2)C(c2c(Cl)cccc2Cl)CC(=O)N1 (stereo not drawn) 27.2%
Cc1ccc(-n2ncc(C(=O)NC3CCCC3)c2C2CCN(C(=O)OC(C)(C)C)CC2)c(C)c1 -27.7%
CS(=O)(=O)c1ncc(N(Cc2ccco2)Cc2ccco2)c(C(=O)Nc2ccccc2Br)n1 -2.93%
COc1cccc(Cn2nnc3c(=O)[nH]c(C4CCCN(C(=O)c5ccc(C)cc5)C4)nc32)c1 (stereo not drawn) -21.6%
CNc1nc(Oc2ccc(=O)n(C)n2)nc(N2CCOCC2)n1 6.63%
Cc1ccc(C)c(NS(=O)(=O)c2ccc3c4c(cccc24)C(=O)N3)c1 11.2%
O=S(=O)(c1ccc2ccccc2c1)n1nc(-c2ccco2)nc1NCc1ccc(F)cc1 -20%
Cc1cc(C)cc(C(=O)N(Cc2nc(-c3ccc(Cl)cc3)no2)C(C)C)c1 11.5%
CCOc1ccccc1NC(=O)CN1C(=O)CC(c2ccco2)Sc2ccccc21 (stereo not drawn) -31%
Cc1cc(NC(=O)CCCn2c(C)c3cnn(-c4ccccc4)c(=O)c3c2C)ccc1Br -18.3%
COC(=O)c1ccc(OCC(O)Cn2cnc3cc(C)c(C)cc32)cc1 (stereo not drawn) -11%
COCCNC(=O)C(=O)NCC(c1ccc2c(c1)OCO2)N1CCOCC1 (stereo not drawn) -13.8%
COCCCNC(=O)c1c(NC(=O)c2nc(S(C)(=O)=O)ncc2Cl)sc2c1CCCC2 -3.78%
Cc1ccc(C(=O)Nc2ccc(-c3nc4ccccc4s3)c(O)c2)c(C)c1 -4.97%
CCCCN(C)CCNC(=O)c1cc(=O)[nH]c2ccc(S(=O)(=O)N3CCCCCC3)cc12 -6.93%
Cc1cc(NC(=O)c2ccc(-c3ccc(Cl)cc3)o2)cc(-c2nc3ncccc3o2)c1O 19.6%
Cc1ccc(CNC(=O)c2cnc(N(C)C)nc2)cc1 -2.54%
COc1ccc(-c2nc(C(=O)Nc3cccc(C(C)=O)c3)nn2-c2ccc(Cl)cc2)cc1 -15.5%
Cc1nc(-n2nc(C)c(Cc3ccccc3Cl)c2C)sc1C(=O)N1CCCCC1C (stereo not drawn) -1.62%
COc1ccc(NC(=O)c2oc3ccccc3c2NC(=O)c2cc(=O)c3c(C)cc(C)cc3o2)cc1 -24.9%
Cc1ccc(NC(=O)CS(=O)(=O)c2nc(-c3ccc(C)cc3)cn2-c2ccc(C)cc2)cc1 -26.4%
CCCCc1ccc(-n2nc3cc(C)c(NC(=O)Cc4ccccc4)cc3n2)cc1 -64.8%
Cc1ccc2cccc(NC(=O)COc3ccccc3[N+](=O)[O-])c2n1 -5.97%
COC(=O)c1ccccc1NC(=O)Cn1cc(S(=O)(=O)Cc2ccccc2F)c2ccccc21 -12.7%
CCOC(=O)c1c(C)oc2nc(C)nc(NCc3ccccc3Cl)c12 5.49%
Cc1cc(Nc2ccc(C)c(C)c2)n2cnnc2n1 -6.22%
COc1ccc2c(c1)c1c(c(=O)n(-c3ccccc3C)c(=O)n1CC(=O)NCc1ccc(C)cc1)n2C 6.22%
Cc1cccc(OCc2ccc(-c3nc(C#N)c(NCCN(C)C)o3)o2)c1 -17.4%
Cc1ccc(S(=O)(=O)c2cnc(SCC(=O)Nc3cc(C)cc(C)c3)nc2N)cc1 -6.36%
CCCN(CCC)C(=O)CSc1nnc2cc(C)c3cc(C)cc(C)c3n12 -2.36%
CCN(CC)c1ccc(NC(=O)CSc2nnc(C)c(=O)[nH]2)cc1 -4.23%
CCOC(=O)c1c(NC(=O)COc2ccccc2F)sc2c1CCCC2 -7.28%
Cc1cccc(CN2C(=O)c3ccccc3Sc3ccc(C(=O)N4CCCC4)cc32)c1 -36.2%
O=C(Nc1cc(Cl)cc(Cl)c1)c1ccc(F)c(S(=O)(=O)NC2CCCC2)c1 9.48%
CCc1ccc(N(CC)C(=O)c2ccc3c(=O)n4c(nc3c2)CCCCC4)cc1 -8.37%
COC(=O)c1c(-c2cccs2)csc1NC(=O)c1ccc(Cl)cc1 -8.52%
COCCN1C(=O)c2[nH]nc(-c3ccccc3O)c2C1c1ccc(OCc2ccccc2)c(OC)c1 (stereo not drawn) -14.3%
COC(=O)c1cc(S(=O)(=O)NCC2CCN(Cc3cc(C)ccc3C)CC2)c[nH]1 -12.7%
COc1ccc(-c2cn3c(n2)sc2cc(C(=O)NCc4ccccc4OC)ccc23)cc1 -1.04%
COc1ccccc1Nc1nn2c(=O)c3ccc(C(=O)NCc4cccs4)cc3nc2s1 -6.12%
COc1ccc(N2CCN(C(=O)c3ccc(C)c(NC(=O)c4nsc5ccccc45)c3)CC2)cc1 -17.8%
COc1ccc(OC)c(S(=O)(=O)NCCc2sc(-c3ccc(C)cc3)nc2C)c1 22.7%
CCOC(=O)c1c(NC(=O)/C=C/c2ccccc2)sc2c1CCCC2 20.1%
COc1cccc(Cn2c(CNC(=O)C(C)C)nc3cccnc32)c1 -1.91%
Cc1ccc2c(=O)c(C(=O)c3ccc(F)cc3)cn(CC(=O)NCc3ccccc3)c2n1 5.4%
COc1ccc(C(=O)Nc2ccc(-c3nc4ncccc4o3)cc2)cc1 12.4%
CC(C)(C)OC(=O)N1CCC(c2c(C(=O)NCc3ccccn3)cnn2-c2ccccc2)CC1 -16.3%
Cn1c(SCC(=O)N2CCCc3ccccc32)ncc(C(=O)Nc2ccc(Cl)cc2)c1=O 4.01%

activation, active:
CCN(C(=O)CSc1ncc(S(=O)(=O)c2ccc(C)c(Cl)c2)c(=O)[nH]1)c1cccc(C)c1 75.4%
